Assay results taken from the BET-seq Pho4 binding data (Le et al. 2018).
This is one part of the list. These are noisy estimates, calculated here from bound and input reads.

Molecular target: T1, Pho4 (S. cerevisiae) (UniProt P07270)
T1 sequence: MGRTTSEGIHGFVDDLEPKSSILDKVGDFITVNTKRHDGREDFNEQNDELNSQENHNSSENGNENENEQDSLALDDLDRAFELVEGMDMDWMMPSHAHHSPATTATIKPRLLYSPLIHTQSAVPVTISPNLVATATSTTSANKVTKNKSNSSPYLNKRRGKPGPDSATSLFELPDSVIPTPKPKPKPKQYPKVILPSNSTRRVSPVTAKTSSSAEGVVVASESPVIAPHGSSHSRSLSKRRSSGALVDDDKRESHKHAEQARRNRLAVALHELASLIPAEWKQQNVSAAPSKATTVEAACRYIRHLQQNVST
Assay: relative binding free energy (BET-seq); higher = weaker binding
Settings: reference: library average

Relative binding free energy, 0 kcal/mol:
TATTGCACGTGATGCT, AACGTCACGTGGTGGG, AGGGTCACGTGGGCTG, GTGTGCACGTGGTTTA, GGTGCCACGTGTAGGG, ATGTGCACGTGATACT, GGATCCACGTGCGTGT, TTTCACACGTGTTGAG, ATTAACACGTGGAGGT, TAACGCACGTGTGTTG, GTGGTCACGTGCTGAA

Relative binding free energy, -0.09 kcal/mol:
AGGCGCACGTGGGACG, GGGGGCACGTGTACGT, CGTGTCACGTGGGATG

Relative binding free energy, 0.12 kcal/mol:
TAGTTCACGTGCTATG, AAGAGCACGTGATCGG, TGGCTCACGTGTATGA

Relative binding free energy, 0.27 kcal/mol:
ATTATCACGTGTCGAT, AAATTCACGTGTCTGT, GAGGTCACGTGTAAAT, TTGCTCACGTGGAGAG, TAGGTCACGTGAATGA

Relative binding free energy, -0.19 kcal/mol:
TTAGGCACGTGCGGGT

Relative binding free energy, 0.51 kcal/mol:
GGATTCACGTGTAGAT

Relative binding free energy, -0.2 kcal/mol:
AGTGGCACGTGCGTCT

Relative binding free energy, 0.46 kcal/mol:
CTATTCACGTGAATTT

Relative binding free energy, 0.05 kcal/mol:
TGAGTCACGTGGTCGT, AGTCACACGTGGGGCT, GGTGCCACGTGAGGGC

Relative binding free energy, 0.3 kcal/mol:
ACTTTCACGTGTTGGA

Relative binding free energy, 0.28 kcal/mol:
TGTTTCACGTGGTTGG

Relative binding free energy, -0.23 kcal/mol:
TGCAGCACGTGGTCGG, AGGGGCACGTGTAGGC, GGGAGCACGTGGGACG

Relative binding free energy, 0.19 kcal/mol:
CATTTCACGTGGAGGG, TGGATCACGTGTGAGG, GGCGTCACGTGGGAAT, TGAGGCACGTGAGTGT, TTTCGCACGTGAGGTA

Relative binding free energy, 0.07 kcal/mol:
AGTGTCACGTGTAGAG, TATTGCACGTGACGGG, TGTATCACGTGGTAAT, TAATACACGTGCTTGT

Relative binding free energy, 0.31 kcal/mol:
TGGATCACGTGAAGTG, GGGTTCACGTGTCGAG

Relative binding free energy, -0.3 kcal/mol:
AATAGCACGTGGGTGA

Relative binding free energy, 0.29 kcal/mol:
TCGGACACGTGATGTT, CTGGCCACGTGAGAGT, AAATTCACGTGAAGTG, GGAAACACGTGAGGGA, GTATTCACGTGGAGAA, GTCGTCACGTGAGGGT

Relative binding free energy, 0.16 kcal/mol:
GACGTCACGTGGTGTT, GCGATCACGTGGGGGG, AAATTCACGTGGCGTG, CGGTTCACGTGTAGAG, AATACCACGTGATGGT, TCATGCACGTGAGGGA, CGTTTCACGTGCTTGT, CAATACACGTGTTTTT

Relative binding free energy, -0.11 kcal/mol:
TCTTGCACGTGGGGTA, GTCGGCACGTGGTGCT, GGGTGCACGTGCATAG

Relative binding free energy, 0.21 kcal/mol:
TTTCACACGTGTTAAT, TTTCTCACGTGGTGGA

Relative binding free energy, 0.38 kcal/mol:
GGTTTCACGTGGCTGG, GTTTTCACGTGAGTGG

Relative binding free energy, -0.1 kcal/mol:
GGTGGCACGTGGTCCT, AGCAGCACGTGTGCGG, TTCGGCACGTGGAGTT, TTAGGCACGTGTGTAG, AGTAACACGTGGTGGC, CTGGGCACGTGGTGTC, GTGTGCACGTGGGGTG

Relative binding free energy, -0.01 kcal/mol:
ATATGCACGTGGATGC, ACGGGCACGTGTTGGA, TAATACACGTGGGAAG, GTGGTCACGTGGGTCA, ATGTGCACGTGATCGT

Relative binding free energy, 0.1 kcal/mol:
TATGACACGTGGACTT, ACTTACACGTGGTTGA, GGTGTCACGTGGATGA, AGTTACACGTGTTTTC, GAGCACACGTGTGGGG, GGGATCACGTGGCTGG, AGAGGCACGTGATGGG

Relative binding free energy, 0.23 kcal/mol:
AGTTTCACGTGATAAA, GTTTTCACGTGGGTAT

Relative binding free energy, -0.03 kcal/mol:
CTGAGCACGTGGAGTG, CTGGACACGTGGGTAG, GGGGCCACGTGGCGTT, CTGTGCACGTGGAGTA, AGCGTCACGTGGCGTG

Relative binding free energy, -0.14 kcal/mol:
AGGTGCACGTGGGACT, ATGCGCACGTGTAGGG, GTGGGCACGTGGGGGA

Relative binding free energy, -0.13 kcal/mol:
TGTCGCACGTGTACGG, CGCGGCACGTGTATGG, CGTGGCACGTGGTTTG

Relative binding free energy, 0.44 kcal/mol:
ACGTTCACGTGAGGTT

Relative binding free energy, 0.08 kcal/mol:
GGTTGCACGTGTGGCC, CTTGTCACGTGTATTG, TGTAGCACGTGATGGG, GCTTACACGTGTGGTG

Relative binding free energy, -0.02 kcal/mol:
TCTTGCACGTGGAGGT, AGATACACGTGGAGTA, ATTGTCACGTGCGTAT

Relative binding free energy, -0.08 kcal/mol:
AGGTGCACGTGTGGCC

Relative binding free energy, 0.03 kcal/mol:
ATTGGCACGTGTGACA, GTTAACACGTGCCGGT, ATATACACGTGTTGTT, GTGAACACGTGTTATG, TAGTACACGTGGTTCG

Relative binding free energy, 0.2 kcal/mol:
AGGTCCACGTGATTAG, ATGGTCACGTGTAGCT

Relative binding free energy, -0.06 kcal/mol:
GGAGACACGTGGCTTG, TGGTCCACGTGGTGCA, TTAGGCACGTGGTTTG, AATAGCACGTGTATGA, GCATGCACGTGGTGTG, GAAGGCACGTGGATTT, TGAGCCACGTGGGAGC

Relative binding free energy, -0.05 kcal/mol:
GGCAGCACGTGGTGGA, TCAGGCACGTGTGTAA, CTTGGCACGTGTGAGC, TGCGGCACGTGTGTAC, TAGTACACGTGGGAGT, TGGAGCACGTGTTCTT

Relative binding free energy, -0.22 kcal/mol:
TTTGCCACGTGGTATA

Relative binding free energy, 0.34 kcal/mol:
GTTTTCACGTGCTTTC, GGTTTCACGTGTGGCT

Relative binding free energy, -0.17 kcal/mol:
ATGGGCACGTGGTATC, CGAGGCACGTGCTGTG, CCTGACACGTGGGGTG

Relative binding free energy, 0.09 kcal/mol:
TGCTACACGTGTGTAA, TGTGGCACGTGATTGT, GAATCCACGTGGGGAG, GATATCACGTGTTTGT, TGTGTCACGTGGACGG, ATGATCACGTGCGGTG

Relative binding free energy, 0.24 kcal/mol:
TCTGTCACGTGTGGCT, TTGTCCACGTGAGGGC, GTGGTCACGTGCATTT

Relative binding free energy, -0.28 kcal/mol:
TGAGGCACGTGTGTTC

Relative binding free energy, 0.15 kcal/mol:
ACGGTCACGTGGTGGC, GGTATCACGTGGTTAC, TAACTCACGTGGTGGA

Relative binding free energy, 0.35 kcal/mol:
TAGTTCACGTGGTCGC

Relative binding free energy, -0.21 kcal/mol:
CGGGGCACGTGTTGTG, ACTTGCACGTGGGTAG

Relative binding free energy, 0.17 kcal/mol:
GGTGTCACGTGGAGTG, TGAATCACGTGTGAGA

Relative binding free energy, -0.04 kcal/mol:
TAGGGCACGTGTCTGT, CGTTGCACGTGGAGGG, TTGGGCACGTGTCGGC, GTCGACACGTGGGTGT, TGGAGCACGTGGGAGG

Relative binding free energy, 0.47 kcal/mol:
GTAATCACGTGAGTAG

Relative binding free energy, -0.07 kcal/mol:
TTGGGCACGTGATTTC, ATTTGCACGTGGGGGT, TTGCACACGTGGGTGG

Relative binding free energy, -0.18 kcal/mol:
CGTTGCACGTGGTATG, GGTAGCACGTGGTCTG

Relative binding free energy, 0.36 kcal/mol:
TTCATCACGTGAATGT, GTTCTCACGTGTTACG, GGTTTCACGTGGGCCT, AGATTCACGTGTGTCG

Relative binding free energy, -0.12 kcal/mol:
ATAGGCACGTGTGTGA, GGTCCCACGTGTTGTG, ACAGGCACGTGCGTGG, TTTTGCACGTGGTTAG, ACATGCACGTGGTGGG, TGGGTCACGTGCTCTG, TTGTGCACGTGGCCGG

Relative binding free energy, 0.33 kcal/mol:
TTGTTCACGTGTGGTT

Relative binding free energy, 0.11 kcal/mol:
TTGTACACGTGTAGTT, GCGCTCACGTGTTGGT, TGGTCCACGTGTGGAT, GTTTGCACGTGGACGT

Relative binding free energy, 0.06 kcal/mol:
AGATACACGTGATGTA, GAGGTCACGTGCAAGG, TCTTTCACGTGTTCTT, CTCGGCACGTGGAAGT, GTTTACACGTGGATAG, TGCTCCACGTGTGAGG, ATTGGCACGTGAAGGC, TAATGCACGTGTGTGC, CTGATCACGTGGCTGG, GGAGTCACGTGTTGCA, TAGTTCACGTGGCCGG

Relative binding free energy, -0.26 kcal/mol:
AATGGCACGTGGGCGT, TTGCGCACGTGGAGTA

Relative binding free energy, 0.13 kcal/mol:
TATATCACGTGTTTTT, AAAGACACGTGAGGTT, TTGGACACGTGTAGTC, AAAGGCACGTGAGTTT, ACTTTCACGTGTTTGG, GTTTGCACGTGACATG, GTGGTCACGTGTGTTA, AGGGTCACGTGTATCG, TGGCACACGTGGATGT

Relative binding free energy, -0.16 kcal/mol:
GTAGGCACGTGTTTAG

Relative binding free energy, 0.04 kcal/mol:
TTGCGCACGTGTAGGT, TTTATCACGTGTTCAA, TTTAACACGTGTTCAT, TTGGTCACGTGTCGCG, TTTGTCACGTGCGTAT, GGTGACACGTGTGATT

Relative binding free energy, -0.15 kcal/mol:
TGTGGCACGTGATAAG, TGGAGCACGTGTCGGG, TAGAGCACGTGGAAGT, GACAGCACGTGGGGGT, CTAGGCACGTGTATTT

Relative binding free energy, -0.24 kcal/mol:
TTGGGCACGTGGTCCA

Relative binding free energy, 0.22 kcal/mol:
GGTATCACGTGAGGCT, ATTAGCACGTGAGGTA, GCGGTCACGTGGGAGC

Relative binding free energy, 0.14 kcal/mol:
TATTTCACGTGGCTCT, ATTTTCACGTGGTCCG, AGAAGCACGTGATGGA, TTTAACACGTGTGGGG

Relative binding free energy, 0.18 kcal/mol:
GGTTACACGTGTGACT, GGCTTCACGTGTAGTA, GAATGCACGTGAGTGA, ACGTTCACGTGTGCGT, GATGACACGTGTATGT

Relative binding free energy, 0.26 kcal/mol:
TCTGTCACGTGAAGTG, GTAGGCACGTGAGGGT, GTCATCACGTGTGGGA, GAGTGCACGTGTGCAG
